Assay results taken from a collection of fitness landscapes (doi:10.1038/s41467-024-54723-y).
In all, about 18,000 sequences were measured (“TetR repression strength (sort-seq, GFP reporter)”: median about 0.23, highest 2% from about 0.68 on). Some of the results follow.

Target: TetR (class B, Tn10) (UniProt P04483)
Assay: TetR repression strength (sort-seq, GFP reporter) (relative to tetO2 = 1); higher = stronger repression
Conditions: E. coli
Procedure, shortened: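 Repression strength is the top bin index plus one minus the read-weighted mean bin, relative to the unaltered operator's value. A low-copy library in E. coli SIG10-MAX randomized eight operator positions between a constitutive promoter and sfGFP, with TetR expressed constitutively; cells grew 5 h at 37 °C in LB with 50 µg/mL chloramphenicol and 10^6 were FACS-sorted into 13 bins that were each Illumina-sequenced. Three independent transformations were averaged, keeping only members with ≥30 reads in all replicates and CV ≤0.5.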

Chain of UniProt P04483 (P04483 whole entry): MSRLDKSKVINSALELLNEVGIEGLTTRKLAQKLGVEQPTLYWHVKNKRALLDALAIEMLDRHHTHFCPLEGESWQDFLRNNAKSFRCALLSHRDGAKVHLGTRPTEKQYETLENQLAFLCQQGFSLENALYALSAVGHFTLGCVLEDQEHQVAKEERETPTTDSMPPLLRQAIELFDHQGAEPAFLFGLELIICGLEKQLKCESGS

| Sequence | TetR repression strength |
| --- | --- |
| TCCCAAGGAGTCCATGAGA | 0.469 |
| TCCCGCTCAGTTTGAGAGA | 0.269 |
| TCCCGATGAGTTTTGGAGA | 0.238 |
| TCCCTTGGAGTGGGCGAGA | 0.261 |
| TCCCAACGAGTGCTCGAGA | 0.241 |
| TCCCCTACAGTTAAAGAGA | 0.287 |
| TCCCGCTAAGTTAGTGAGA | 0.38 |
| TCCCTGATAGTCTGGGAGA | 0.0621 |
| TCCCACTGAGTGTCGGAGA | 0.0213 |
| TCCCGTCGAGTTTATGAGA | 0.104 |
| TCCCCTGGAGTTGACGAGA | 0.178 |
| TCCCCAGCAGTAGGAGAGA | 0.174 |
| TCCCTTAGAGTTATAGAGA | 0.219 |
| TCCCTATAAGTGTAGGAGA | 0.338 |
| TCCCTACAAGTGTTTGAGA | 0.295 |
| TCCCTAGCAGTTGAGGAGA | 0.0558 |
| TCCCTGTTAGTAGCGGAGA | 0.235 |
| TCCCTCAGAGTGGCCGAGA | 0.387 |
| TCCCGTAGAGTGGACGAGA | 0.161 |
| TCCCGGTGAGTCGCGGAGA | 0.283 |
| TCCCTATGAGTGACAGAGA | 0.527 |
| TCCCGGTGAGTGACGGAGA | 0.203 |
| TCCCACTGAGTGCCAGAGA | 0.0946 |
| TCCCTGGGAGTCGAAGAGA | 0.196 |
| TCCCGCATAGTACATGAGA | 0.175 |
| TCCCGCTAAGTACAGGAGA | 0.0492 |

| Sequence | TetR repression strength |
| --- | --- |
| TCCCTAAGAGTGCAAGAGA | 0.339 |
| TCCCTACGAGTAGACGAGA | 0.607 |
| TCCCCTGGAGTATTAGAGA | 0.215 |
| TCCCGGCCAGTGATGGAGA | 0.371 |
| TCCCTGAGAGTTATCGAGA | 0.122 |
| TCCCGCGTAGTGACTGAGA | 0.334 |
| TCCCAGTGAGTGTTAGAGA | 0.231 |
| TCCCAATGAGTTCAGGAGA | 0.243 |
| TCCCGCGAAGTTGTTGAGA | 0.112 |
| TCCCGAGGAGTACTCGAGA | 0.132 |
| TCCCCTCCAGTGGCGGAGA | 0.0475 |
| TCCCACCGAGTGATAGAGA | 1.21 |
| TCCCGGCGAGTCATGGAGA | 0.185 |
| TCCCAGTGAGTTCACGAGA | 0.16 |
| TCCCTACAAGTAGATGAGA | 0.312 |
| TCCCTACTAGTTTACGAGA | 0.207 |
| TCCCAAATAGTGATCGAGA | 0.448 |
| TCCCCCGCAGTAGCGGAGA | 0.153 |
| TCCCGACCAGTAAGGGAGA | 0.264 |
| TCCCCCAAAGTTCGTGAGA | 0.13 |
| TCCCGGGTAGTGGATGAGA | 0.258 |
| TCCCGACTAGTACGTGAGA | 0.377 |
| TCCCGGTTAGTTTAAGAGA | 0.185 |
| TCCCGCACAGTATGTGAGA | 0.107 |
| TCCCATGAAGTGGGAGAGA | 0.268 |
| TCCCAGGGAGTTAACGAGA | 0.38 |

| Sequence | TetR repression strength |
| --- | --- |
| TCCCATAGAGTAGCTGAGA | 0.125 |
| TCCCGCCGAGTATCTGAGA | 0.279 |
| TCCCCGGAAGTCCGCGAGA | 0.21 |
| TCCCGAAAAGTCTCCGAGA | 0.224 |
| TCCCGGCTAGTGTGGGAGA | 0.221 |
| TCCCGCAGAGTTCCGGAGA | 0.218 |
| TCCCTACGAGTCAACGAGA | 0.31 |
| TCCCCTTCAGTTGCAGAGA | 0.471 |
| TCCCTCATAGTTCAAGAGA | 0.311 |
| TCCCTTTTAGTGAAGGAGA | 0.373 |
| TCCCCGCTAGTGTTCGAGA | 0.289 |
| TCCCACATAGTGGCGGAGA | 0.203 |
| TCCCCATCAGTCGTGGAGA | 0.207 |
| TCCCGTGCAGTGTCTGAGA | 0.362 |
| TCCCGCTTAGTGTGAGAGA | 0.106 |
| TCCCAGGGAGTTCTTGAGA | 0.418 |
| TCCCAGTGAGTTTGAGAGA | 0.218 |
| TCCCGCCGAGTGGGAGAGA | 0.257 |
| TCCCTCGGAGTACATGAGA | 0.104 |
| TCCCGAGCAGTGATTGAGA | 0.701 |
| TCCCAGCGAGTTGCCGAGA | 0.0792 |
| TCCCGCCTAGTCTACGAGA | 0.367 |
| TCCCGTGAAGTATGTGAGA | 0.144 |
| TCCCTATCAGTGAATGAGA | 0.781 |
| TCCCGAACAGTCTAAGAGA | 0.41 |
| TCCCACCTAGTGGCAGAGA | 0.305 |

| Sequence | TetR repression strength |
| --- | --- |
| TCCCGCTGAGTGTCAGAGA | 1.09 |
| TCCCACCAAGTGTTCGAGA | 0.311 |
| TCCCATTAAGTATCGGAGA | 0.454 |
| TCCCCTACAGTCTTCGAGA | 0.28 |
| TCCCATCGAGTTCCAGAGA | 0.213 |
| TCCCGTCCAGTCGAGGAGA | 0.157 |
| TCCCGTGTAGTGCATGAGA | 0.0882 |
| TCCCGTGAAGTCAGGGAGA | 0.224 |
| TCCCATCGAGTGGGAGAGA | 0.259 |
| TCCCTGCTAGTTGTGGAGA | 0.0589 |
| TCCCCGGCAGTGTGAGAGA | 0.18 |
| TCCCACGTAGTGAACGAGA | 0.207 |
| TCCCGATGAGTATGAGAGA | 0.442 |
| TCCCAAACAGTTCGAGAGA | 0.212 |
| TCCCTATCAGTGCTCGAGA | 0.993 |
| TCCCACAAAGTGCCTGAGA | 0.126 |
| TCCCTTTGAGTGATAGAGA | 0.446 |
| TCCCTCTCAGTGAAAGAGA | 0.574 |
| TCCCTAGAAGTTCCTGAGA | 0.311 |
| TCCCCGTTAGTCGGTGAGA | 0 |
| TCCCGTCGAGTGTGGGAGA | 0.186 |
| TCCCATCGAGTCCCCGAGA | 0.504 |
| TCCCTTGTAGTTGTTGAGA | 0.42 |
| TCCCACGCAGTAGCGGAGA | 0.151 |
| TCCCAATGAGTACATGAGA | 0.207 |
| TCCCGGTAAGTTTCCGAGA | 0.338 |

| Sequence | TetR repression strength |
| --- | --- |
| TCCCACATAGTTCTAGAGA | 0.364 |
| TCCCGCATAGTACAGGAGA | 0.125 |
| TCCCTCGGAGTGGGTGAGA | 0.988 |
| TCCCTGTTAGTCGCGGAGA | 0.512 |
| TCCCTCGAAGTATGCGAGA | 0.119 |
| TCCCTTGGAGTAAGGGAGA | 0.189 |
| TCCCTCGAAGTAACGGAGA | 0.0678 |
| TCCCGGCAAGTGATGGAGA | 0.227 |
| TCCCTTCGAGTCTCGGAGA | 0.042 |
| TCCCTTCTAGTAGGAGAGA | 0.35 |
| TCCCAAAGAGTCCTAGAGA | 0.299 |
| TCCCTCGCAGTTCGAGAGA | 0.167 |
| TCCCGCTCAGTGATCGAGA | 0.435 |
| TCCCGTCAAGTGACCGAGA | 0.138 |
| TCCCTCACAGTTGTAGAGA | 0.373 |
| TCCCCGCTAGTTTATGAGA | 0.359 |
| TCCCTCGTAGTGGGGGAGA | 0.167 |
| TCCCAGCTAGTTAGAGAGA | 0.352 |
| TCCCCGACAGTGGGGGAGA | 0.175 |
| TCCCTAGAAGTAGATGAGA | 0.277 |
| TCCCTTTAAGTCTGGGAGA | 0.219 |
| TCCCTCCGAGTAAACGAGA | 0.408 |
| TCCCTTTGAGTGGGTGAGA | 0.495 |
| TCCCCATTAGTTGTAGAGA | 0.237 |
| TCCCTAGGAGTTTCAGAGA | 0.254 |
| TCCCCTCAAGTCGGGGAGA | 0.0661 |
